In US20260109763A1, “ANTI-PILRA ANTIBODIES, USES THEREOF, AND RELATED METHODS AND REAGENTS” (DENALI THERAPEUTICS INC., priority 2021, published 2026):

Experiments:
hPILRB = molecular target: T1, hPILRB (Homo sapiens, UniProt Q9UKJ0); test: SPR (Biacore 8K) binding affinity to hPILRB; settings: Table 6
T1 construct: injections of serial 3-fold dilutions of recombinant ECD reagents
Experimental: (§1) The binding affinities of anti-PILRA antibodies to hPILRA, hPILRB, and cynoPILRA extracellular domain (ECD) were measured by SPR using a Biacore 8K instrument (Table 2). Antibodies were captured on Biacore™ Series S CM5 sensor chips immobilized with mouse anti-human Fab (human Fab capture kit from GE Healthcare) followed by injections of serial 3-fold dilutions of recombinant ECD reagents at a flow rate of 30 μL/min. Each sample was analyzed using a 3-minute association followed by a 10-minute dissociation. After each injection, the sensor chip was regenerated using a 5 0 mM glycine pH2.0 regeneration buffer. A 1:1 Languir model of simultaneous fitting of kon and koff was used for kinetics analysis.
(§2) The binding affinities of four reference anti-PILRA antibodies to hPILRA, hPILRB, and cynoPILRA were measured by SPR using a Biacore 8K instrument (described in Example 2). The EC50 binding values of the four reference antibodies were also measured in HEK293 cells expressing hPILRA G78.
(§3) Further, humanized antibody clones 36-39 were generated. The binding affinities of these clones for hPILRA G78, hPILRA R78, hPILRB, and cyno PILRA were measured by SPR (Table 8).

cynoPILRA = test: SPR (Biacore 8K) binding affinity to cynoPILRA; design: species or system cynomolgus monkey; settings: Table 6
Experimental: as §1, §2, §3

T1 sequence (Q9UKJ0 with tags, fused parts or gaps): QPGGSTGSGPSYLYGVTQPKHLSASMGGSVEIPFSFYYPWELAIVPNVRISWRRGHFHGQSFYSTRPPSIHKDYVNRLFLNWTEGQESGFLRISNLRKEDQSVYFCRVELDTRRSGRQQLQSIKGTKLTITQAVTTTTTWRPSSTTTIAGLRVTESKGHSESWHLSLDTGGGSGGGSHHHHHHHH

| hPILRB KD (hPILRB) | cynoPILRA KD (cynoPILRA) | Molecule |
| --- | --- | --- |
| No binding | No binding | Reference Antibody #4: reference anti-PILRA antibody; heavy and light chain sequences among SEQ ID NOS:128-135 (antibody) heavy: QVTLKESGPGILQPSQTLSLTCSFSGFSLTTFGMGVGWIRQPSGKGLEWLAHIWWDDDKYYNPALKSRLTISKDISKNQVFLKIANVDTADTATYYCARIEDYGNPFDYWGQGTTLTVSSASTKGPSVFPLAPSSKSTSGGTAALGCLVKDYFPEPVTVSWNSGALTSGVHTFPAVLQSSGLYSLSSVVTVPSSSLGTQTYICNVNHKPSNTKVDKKV[left out - human IgG1 Fc with changes] light: DIQMNQSPSSLSASLGDTITITCHASQNIHVWLSWYQQKPGNIPKLLIYKASNLHTGVPSRFSGSGSGTGFTLTISSLQPEDIATYYCQQGQSYPLTFGAGTKLELKRTVAAPSVFIFPPSDEQLKSGTASVVCLLNNFYPREAKVQWKVDNALQSGNSQESVTEQDSKDSTYSLSSTLTLSKADYEKHKVYACEVTHQGLSSPVTKSFNRGEC |
| No binding | No binding | Reference Antibody #1: reference anti-PILRA antibody; heavy and light chain sequences among SEQ ID NOS:128-135 (antibody) heavy: QVTLQESGPGILQPSQTLSLTCSFSGFSLSTFGMGVGWIRQPSGKGLEWLAHIWWDDDKYYNPALKSRLTISKDTSKNQVFLKIASVDTADIATYYCARVEDYGNPFDYWGQGTTLTVSSASTKGPSVFPLAPSSKSTSGGTAALGCLVKDYFPEPVTVSWNSGALTSGVHTFPAVLQSSGLYSLSSVVTVPSSSLGTQTYICNVNHKPSNTKVDKKV[left out - human IgG1 Fc with changes] light: DIQMNQSPSSLSASLGDTITITCHASQNIHVWLNWYQQKPGNIPKLLIYKASNLHTGVPSRFSGSGSGTGFTVTISSLQPEDIATYYCQQGQSYPLTFGAGTKLELKRTVAAPSVFIFPPSDEQLKSGTASVVCLLNNFYPREAKVQWKVDNALQSGNSQESVTEQDSKDSTYSLSSTLTLSKADYEKHKVYACEVTHQGLSSPVTKSFNRGEC |
